Measurements reported in US7399869B2, “Fibroblast activation protein inhibitor compounds and methods” (Genentech, Inc., priority 2005, dated 2008).

Columns and labels:
Type in all cases: biochemical
[1] = tested on: T1, C[C@@H](O)[C@H](NC(=O)[C@H](CCCCNC(=O)c1ccc(/N=N/c2ccc(N(C)C)cc2)cc1)NC(=O)[C@@H](N)CCCNC(=N)N)C(=O)N[C@@H](CO)C(=O)N[C@H](CO)C(=O)N1CCC[C@H]1C(=O)N[C@@H](CC(N)=O)C(=O)N[C@@H](CCC(N)=O)C(=O)N[C@@H](CCC(=O)O)C(=O)N[C@@H](CCC(N)=O)C(=O)N[C@@H](CCC(=O)NCCNc1cccc2c(S(=O)(=O)O)cccc12)C(=O)N[C@@H](CCCNC(=N)N)C(=O)O; experiment: Cleavage of FRET labelled peptide substrates by FAP; details: other: FRET peptide RK(dabcyl)TS-P2-PNQEQE(edans)R cleaved by FAP, assay buffer containing 0.1 mg/ml bovine serum albumin, pH 7.4
T1 construct: FAP (amino acids 38-760); FLAG (N); made in house; host or cells: 293 cells (secreted, purified from serum-free conditioned media)
Excerpt: (§1) Cleavage by FAP of model peptide substrates can be detected and quantitated where the peptide is labelled with two moieties, a fluorescent reporter and quencher, which together undergo fluorescence resonance energy transfer (FRET). Cleavage of the FRET peptide releases fluorescence, i.e. ceases quenching. which may be detected and quantitated. […] Upon cleavage of the peptide by a peptidase or protease, a detectable increase in fluorescence may be measured (Knight, C. (1995) “Fluorimetric Assays of Proteolytic Enzymes”, Methods in Enzymology, Academic Press, 248:18-34).
(§2) Protease Assays—Protease activity was monitored continuously using a SpectraMax M2 microplate reader (Molecular Devices Corp., Sunnyvale Calif.) in the kinetic mode. Assays were conducted at 23° C. in 50 mM Tris (pH 7.4), 100 mM NaCl, 1 mM EDTA. The excitation/emission wavelengths for the different fluorogenic substrates were 360/460 nm (AMC), 400/505 nm (AFC), 340/425 nm (MNA), 340/510 nm (EDANS), and 337/425 nm (Abs). Standard curves of the appropriate fluorescent product versus concentration were used to convert relative fluorescence units to nmol of product produced. Substrates in the X-Pro-AMC library were used in rate assays at 5 μM final concentration. […] The kinetic parameters were calculated from Michaelis-Menten plots (V0 versus [S]) with nonlinear regression analysis using GraphPad software. kcat values were calculated under the assumption that each protease was 100% active.

[2] = tested on: T2, Cc1c(CC(N)=O)c(=O)oc2cc(NC(=O)[C@@H]3CCCN3C(=O)[C@@H](C)N)ccc12; experiment: as above; details: other: FRET peptide RK(dabcyl)TS-P2-PNQEQE(edans)R cleaved by FAP, assay buffer containing 0.1 mg/ml bovine serum albumin, pH 7.4
T2 construct: FAP (amino acids 38-760); FLAG (N); made in house; host or cells: 293 cells (secreted, purified from serum-free conditioned media)
Excerpt: as §1, §2

[3] = tested on: T3, CC(=O)NCC(=O)N1CCCC1C(=O)Nc1ccc2c(C(F)(F)F)c(CC(N)=O)c(=O)oc2c1; experiment: Hydrolysis of C-terminal coumarin dipeptide substrates by FAP (kinetic constants); details: other: FAP, substrates with blocked N-termini, 23° C., pH 7.4, NC = no cleavage up to 1 mM substrate
T3 construct: FAP (amino acids 38-760); FLAG (N); made in house; host or cells: 293 cells (secreted, purified from serum-free conditioned media)
Protocol: (§3) The relative cleavage rates by FAP and several dipeptidases of N-blocked (8) and unblocked (7) Gly-Pro dipeptide substrates were measured.
(§4) The cleavage (hydrolysis) rates of various C-terminal coumarin dipeptide substrates 7-16 by FAP and DPP-4 were measured (Tables 4 and 5). The amino-terminus of the substrates was unblocked and the amino acids were varied in Table 4. The amino-terminus of the substrates was blocked and the amino acids were varied in Table 5. To extend the results obtained with the dipeptide substrate library, kinetic parameters were determined for cleavage of the unblocked dipeptide substrates by FAP (Table 4). The catalytic efficiency (kcat/Km) for substrate cleavage was greatest with Ile-Pro-AFC, followed by Ala-Pro-, Gly-Pro- and Phe-Pro-AFC, consistent with the dipeptide substrate library results (FIG. 5). […] Kinetic constants for cleavage of Ala-Pro-AFC and Gly-Pro-AFC by DPP-4 were determined (Table 4). The catalytic efficiency for Ala-Pro-AFC hydrolysis was greater than that for Gly-Pro-AFC, and consistent with the dipeptide library.
as §2
(§5) When saturating amounts of substrate could not be achieved, catalytic efficiencies (kcat/Km) were determined under pseudo-first order conditions ([S]<<the estimated Km) and fit to the following equation: Ln[St/S0]=−kobst, where St is the concentration of substrate remaining at time t, S0 is the initial substrate concentration and kobs is the apparent first order substrate cleavage constant equal to (kcat/Km) times ET, the total enzyme concentration (Copeland, R. (2000) Enzymes, A Practical Introduction to Structure, Mechanism, and Data Analysis, 2nd Ed., John Wiley and Sons, Inc, New York). The linear relationship of Ln[St/S0] versus time allows calculation of kcat/Km by dividing the slope of the plot by ET.

[4] = tested on: T4, NCC(=O)N1CCCC1C(=O)Nc1ccc2c(C(F)(F)F)c(CC(N)=O)c(=O)oc2c1; experiment: as above; details: other: FAP, substrates with unblocked N-termini, 23° C. in 50 mM Tris-HCl, 100 mM NaCl, 1 mM EDTA, pH 7.4, NC = no cleavage up to 1 mM substrate
T4 construct: FAP (amino acids 38-760); FLAG (N); made in house; host or cells: 293 cells (secreted, purified from serum-free conditioned media)
Protocol: as §3, §4, §2, §5

**Q.** For FAP (Homo sapiens) (sequence left out), which Km [1] is on record?
**A.** 0.6 ± 0.1 µM

**Q.** What about the kcat [1] of the same substance?
**A.** 2.2 ± 0.4 s⁻¹

**Q.** What about the kcat/Km [1] of the same substance?
**A.** 3.5e+06 M⁻¹ s⁻¹

**Q.** What about the Km [2] of the same substance?
**A.** 0.8 ± 0.1 µM

**Q.** And the kcat [2]?
**A.** 1.9 ± 0.1 s⁻¹

**Q.** What about the kcat/Km [2] of the same substance?
**A.** 2.5e+06 M⁻¹ s⁻¹

**Q.** And the Km [3]?
**A.** 330 ± 3 µM

**Q.** What about the kcat [3] of the same substance?
**A.** 7.7 ± 0.2 s⁻¹

**Q.** What about the kcat/Km [3] of the same substance?
**A.** 23000 M⁻¹ s⁻¹

**Q.** And the Km [4]?
**A.** 248 ± 12 µM

**Q.** What about the kcat [4] of the same substance?
**A.** 5.6 ± 0.2 s⁻¹

**Q.** And the kcat/Km [4]?
**A.** 23000 M⁻¹ s⁻¹
